For 21 sequences, binding signal (log2 fold change) results are on record in article PMC5892938.

This is one part of the list. At the low end of the ranking the order means little.

This assay addresses GST-SBP-SLBP (stem-loop binding protein) (UniProt Q14493). The assay can be described thus: targeted RNA Bind-n-Seq.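 Also: DESeq read counts versus GST-SBP nonspecific binding control pulldown.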 Conditions: RBNS binding buffer: 25 mM Tris pH 7.5, 150 mM KCl, 3 mM MgCl2, 0.1% Tween, 0.5 mg/mL BSA, 1 mM DTT; 27 nM protein, 750 pM RNA pool; temperature not stated; high values mean tight binding.
Take “GGUCACGUCUCAAUCAACUCGUCUUCAGGAGUUUACUCCUGUAUUUUCAACAGCUCGCAGUCAAG”: the binding signal (log2 fold change) turned out to be 0.167. Take “GGUCACGUCUCAAUCAACUCUCUAGAGGGGGGGAAAACCCCUUUACCCUCACCAUCAACAGCUCGCAGUCAAG”: the binding signal (log2 fold change) worked out at 0.354.

Consider “GGUCACGUCUCAAUCAACUCGUCUUCAGGAGUUUUCUCCUGCUUAUUCAACAGCUCGCAGUCAAG”, for which the binding signal (log2 fold change) was -0.116. In the case of “GGUCACGUCUCAAUCAACUCAUCUUCAGGAGUUUUCUCCUGCAUAGUCAACAGCUCGCAGUCAAG”, the binding signal (log2 fold change) turned out to be 0.197. For the sequence “GGUCACGUCUCAAUCAACUCAUUCUCCAGGGAAAACCCUGGUAUUUUCAACAGCUCGCAGUCAAG”, the binding signal (log2 fold change) came out at 0.206. “GGUCACGUCUCAAUCAACUCAAUCCCAGGAGUUUACUCCUGCUUUCUCAACAGCUCGCAGUCAAG”: the binding signal (log2 fold change) is -0.178. For the sequence “GGUCACGUCUCAAUCAACUCAUUCCCCAGGGAAAGCCCUGGUUAUCUCAACAGCUCGCAGUCAAG”, the binding signal (log2 fold change) is -0.0592. As for “GGUCACGUCUCAAUCAACUCACACGAGGGGGGGAAAACCCCUUUGCCCUCAUUAUCAACAGCUCGCAGUCAAG”, the binding signal (log2 fold change) was -0.504. For the sequence “GGUCACGUCUCAAUCAACUCUACUCCAGGAGUUUCCUCCUGUUUUCUCAACAGCUCGCAGUCAAG”, the binding signal (log2 fold change) was determined as 0.0612. As for “GGUCACGUCUCAAUCAACUCUAUCUCAGGAGUUUACUCCUGUUAAUUCAACAGCUCGCAGUCAAG”, the binding signal (log2 fold change) was determined as 0.00698. Then “GGUCACGUCUCAAUCAACUCAUUCGAGGGGGGGAAAACCCCUUUACCCUCAUCUUCAACAGCUCGCAGUCAAG”, with -0.316; and “GGUCACGUCUCAAUCAACUCAUUUUCAGGAGUUUCCUCCUGCUAUCUCAACAGCUCGCAGUCAAG”, with 0.0173; and “GGUCACGUCUCAAUCAACUCAUUCUCAGGAGUUUACUCCUGCUUAUUCAACAGCUCGCAGUCAAG”, with 0.0387. Then “GGUCACGUCUCAAUCAACUCAUUCUCCAGGGAAAGCCCUGGUUUACUCAACAGCUCGCAGUCAAG”, with 0.212. As to “GGUCACGUCUCAAUCAACUCAUUCUCAGGAGUUUCCUCCUGCAAACUCAACAGCUCGCAGUCAAG”, the binding signal (log2 fold change) is -0.103. As for “GGUCACGUCUCAAUCAACUCUUCUUCAGGAGUUUCCUCCUGUUAACUCAACAGCUCGCAGUCAAG”, the binding signal (log2 fold change) was 0.08. For “GGUCACGUCUCAAUCAACUCUAGUCCCAGGGAAAACCCUGGUUUUUUCAACAGCUCGCAGUCAAG”, the binding signal (log2 fold change) is -0.315. Turning to “GGUCACGUCUCAAUCAACUCAUCGCCAGGAGUUUGCUCCUGUAAUUUCAACAGCUCGCAGUCAAG”, the binding signal (log2 fold change) was -0.143. On to “GGUCACGUCUCAAUCAACUCAACUUCAGGAGUUUACUCCUGUAAAUUCAACAGCUCGCAGUCAAG”, for which the binding signal (log2 fold change) worked out at 0.141. Under “GGUCACGUCUCAAUCAACUCUAUCUCCAGGGAAACCCCUGGCUAUUUCAACAGCUCGCAGUCAAG” stands 0.27; under “GGUCACGUCUCAAUCAACUCUUCUUCAGGAGUUUACUCCUGUUAUGUCAACAGCUCGCAGUCAAG”, 0.0922.
